Experimental data from the supplement of paper PMC10126150.
Sequences with one replicate were seen in a single cluster, so their values are uncertain.

Test system: ATP
Experiment: switch fluorescence ratio, 500 uM ATP over buffer (Cy3 cluster intensity, sum of 5 cycles each) (fold (ratio)); higher = stronger signal-on switching upon ATP binding; sequences stand for … in TCGTCGGCAGCGTCAGATGTGTATAAGAGACAGTTTTTTTTTTTTTTTTTTTTTTTTT…TC
Details: aptamer strand: ATP DNA aptamer (quencher-CACCTGGGGGAGTATTGCGGAGGAAGG + anchor), 100 nM annealed; ATP concentration: 500 uM; one replicate
Outline: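 The quencher-labelled ATP aptamer, at 100 nM, was annealed to Cy3-labelled switching-strand clusters on a modified Illumina MiSeq flow-cell. The clusters were imaged in selection buffer, then after 15 min with 500 uM ATP at 22 °C, and this buffer/ATP cycle ran five times with NaOH stripping and re-annealing between runs. Per-cluster fluorescence ratios, summed target-cycle over summed buffer-cycle Cy3 intensity, were averaged per switch-domain sequence. Clusters outside 100-1000 RFU were excluded.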
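Note: ATP exposure 15 min at 22 °C before imaging.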

| Sequence | switch fluorescence ratio |
| --- | --- |
| CGCCTAGATG | 1.02 |
| GACTCGACTT | 0.971 |
| GATTTAGGAG | 1.01 |
| CGAGTGAGGT | 0.991 |
| GGTTGGACTC | 0.979 |
| AGTATCCGCT | 0.969 |
| ATATTCAGCA | 0.983 |
| TTACGACAGG | 1.06 |
| TTAGATCGCG | 1.02 |
| AAACAACGTA | 1.05 |
| TGTTAGCACG | 1.05 |
| AATCTGGGT | 0.967 |
| CCGTTGCGCT | 1.21 |
| TTTTTAGCGC | 0.948 |
| GCTTTTTATT | 1.01 |
| ATGCTCTGCG | 1 |
| AGTATCAGTG | 0.979 |
| CGGGGAGTCC | 1.19 |
| ATTAAAGAAT | 0.994 |
| ACAGTGCGAG | 1.03 |
| CGTGCGCGTA | 1.01 |
| ACTCGCTTAG | 1.28 |

| Sequence | switch fluorescence ratio |
| --- | --- |
| TCGCGGGTTT | 0.997 |
| AGGGTAATAA | 0.999 |
| AGATTATCGC | 0.955 |
| ACCTTTACTA | 1.17 |
| CGAGGGGTCA | 1 |
| GGAGCTGTTG | 0.995 |
| ATTGTGATGG | 0.999 |
| GTAACTACGA | 1.1 |
| AGAGTGGTCC | 0.893 |
| AGCCTGTTGG | 0.972 |
| GTGATTGTCT | 0.99 |
| TGCCTCGCAA | 2.59 |
| CGTATGATGC | 0.925 |
| TCTATATA | 0.957 |
| TGTAATAACT | 1.04 |
| TAGAGCGTAA | 1.11 |
| GGCATCAACT | 1.07 |
| CATGAAACGG | 1.04 |
| TCTTATAAGG | 1 |
| GTTGGATCTA | 1.01 |
| GGCGCCCCGA | 1.03 |
| GAGTGGCCCT | 0.99 |

| Sequence | switch fluorescence ratio |
| --- | --- |
| GGGAATAGGA | 0.977 |
| CACCAACCCT | 1.16 |
| GACGCCAT | 1.41 |
| TCCCCCAGGT | 1.1 |
| GGGTCTTTAC | 1.04 |
| AGCGGCTGTT | 0.98 |
| CCTGGGCGTA | 1.07 |
| CACGTGGCG | 1.03 |
| GATCAGGGGA | 1.03 |
| TGGAGGACCG | 1.05 |
| GGAGTCGCGA | 1.05 |
| AGAGAATGT | 0.976 |
| CTGGCCCTTT | 1.04 |
| GAGCCTATAG | 1.04 |
| CTCTGTTATC | 2.11 |
| GTGGTTTAGT | 0.997 |
| CAAACGCTGA | 1.95 |
| CCCCGGGCG | 1.08 |
| TCTCACGGGA | 1.13 |
| AGGCGCTCAC | 1.13 |
| GTTATAACTG | 1.08 |
| TTAAACTTGG | 1 |

| Sequence | switch fluorescence ratio |
| --- | --- |
| TAGATCCGGG | 1.2 |
| TTTAATCGCA | 1.01 |
| ATTAAACTAC | 1.12 |
| TTGTGGATAG | 0.952 |
| AGAACGCGTG | 1 |
| TATGTACGG | 1.07 |
| TAATCTGTTG | 1.01 |
| GGCATTATTA | 0.978 |
| TTCTGTGCCT | 1.01 |
| GATAAATGG | 1.01 |
| GCGCCTTAAC | 1.2 |
| TCATCCCAG | 1.14 |
| AGGGGTTTAA | 1.01 |
| TACGGGTTAA | 1.03 |
| CGGCGCTGAT | 1.07 |
| GAGTTACGTC | 0.972 |
| CTTGGAACGG | 0.94 |
| TGTACCGGC | 1.04 |
| GCTAGGTTCG | 0.947 |
